# According to PubChem BioAssay AID1347417 (National Center for Advancing Translational Sciences (NCATS), 2020):
# Values joined by “and” are separate entries in the source; they are usually repeats but may differ in a detail not shown here. Identical values can stand only once. About 5,300 (4.4%) of roughly 120,000 compounds were called active. The inconclusive results got no clear call from the source; some entries with a clear call stand among them for comparison. Calls come from the whole dose curve; as a rule, active = well fitted inhibition curve with a large enough effect; inconclusive = small, poorly fitted or top-dose-only effect; inactive = no such curve, though single readings can be large or run the other way. Where the call is inconclusive, the potency comes from a doubtful curve fit.
# Experiment: qHTS Primary assay for Inhibitors of Plasmodium falciparum Dd2 growth in vitro; note: nearly all actives have a fitted effect of over 65% in size;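 for activity, negative = inhibition: plate controls were DMSO vehicle for no effect and reference drug for full effect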
# Conditions: P. falciparum Dd2 growth, SYBR Green, 72 h; activity, negative = inhibition: at 28.9 µM (top of the series) unless noted; series mostly up to 28.9 µM
# Method in brief: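 Readout: SYBR Green fluorescence, 485 nm excitation, 535 nm emission, after ~16 h lysis at 37C. Before that, Dd2-infected red cells (2.5% hematocrit) grew 72 h with compound, 29 uM top final concentration.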
# Potency is the fitted concentration of half-maximal effect; tags give direction and shape of the fitted curve.
Structure (SMILES),Potency,"activity, negative = inhibition"
Cc1ccc(N(CC(=O)Nc2cccc(Cl)c2)S(=O)(=O)c2cccs2)cc1,"inconclusive: 1 µM [inhibitor, full curve]",
O=C(COc1ccccc1)N1CCC2(CC1)CC(OCC1CC1)CCO2 (centres undefined),"inconclusive: 6.31 µM [inhibitor, partial curve, poor fit]",
CCN(Cc1ccccc1)S(=O)(=O)c1ccc2c(c1)CC(C)N2C(=O)C1CCC1 (centres undefined),"inconclusive: 10 µM [inhibitor, single point]",
CC(=O)C1=C(c2ccc(Cl)cc2)N(C(C)=O)n2c(nnc2C2CCCCC2)S1,active: 1 µM,
COc1ccccc1CNC(=O)c1cc2c(N(C)Cc3ccccc3)nc(C)cn2n1,"inconclusive: 2.51 µM [inhibitor, full curve, poor fit]",
CCOc1ccccc1NC(=O)Cc1noc2ccc(C)cc12,inactive,
O=C([C@@H]1C[C@H](F)CN1C(=O)c1cccs1)N1CCOCC1,inactive,
COc1ccccc1CNC(=O)C1(c2ccc(NC(=O)C3CC3)cc2)CCCCC1,"inconclusive: 1.26 µM [inhibitor, full curve, poor fit]",
Cc1cc(NC(=O)Nc2nnc(N(C)Cc3ccccc3)s2)ccc1Br,,inconclusive: -184% [inhibitor] [at 5.79 µM]
Cc1ccc(F)cc1S(=O)(=O)N1CCCC(Cn2c(C3CC3)nc3cccnc32)C1 (centres undefined),"inconclusive: 11.2 µM [inhibitor, partial curve, poor fit]",
Cc1ccc(O)c(NC(=O)c2cc(-c3ccccc3O)no2)c1,active: 2.24 µM,
CNC(=O)[C@@H](c1ccc(Cl)cc1)N1CCC[C@H]1C(=O)NC(C)C,inactive,
CC(C)CN1C(=O)CCc2cc(NC(=O)c3c(F)cccc3F)ccc21,inactive,
N#Cc1cccc(-c2ccnc(N[C@H]3CO[C@H]4[C@@H]3OC[C@H]4OC(=O)Nc3cccc(C(F)(F)F)c3)n2)c1,inactive,
COc1ccccc1C(=O)N1CCN(Cc2cc(=O)oc3cc(C)ccc23)CC1,inactive,
COc1cccc(CNCC2(COc3ccccc3)C[C@@H](O)[C@@H](O)C2)c1 (some centres undefined),active: 3.98 µM,
Cc1ccc(CN2CCN(C(=O)c3ccc4c(c3)C(O)CCCCCN4C)CC2)cc1 (centres undefined),active: 12.6 µM,
COC(=O)C1=C(C)NC(=O)NC1c1cccs1 (centres undefined),inactive,
O=C1NC2(CCN(C(=O)c3ccc(C(F)(F)F)cc3)CC2)Oc2ccccc21,inactive,
CC1(C(=O)NCC2CCCO2)CCc2cnc(NCc3ccccc3)nc21 (centres undefined),inactive,
CN1CCN(C(=O)CCc2ccncc2)CC12CCNCC2,inactive,
CC(C)(C)c1cc(CC2(NCc3ccc(OC(F)(F)F)cc3)COC2)no1,"inconclusive: 10 µM [inhibitor, partial curve, poor fit]",
CSCC(=O)N[C@H]1CCN2C(=O)c3cc(-c4cccc(C)c4C)ccc3NC(=O)[C@H]12,inactive,

Structure (SMILES),Potency,"activity, negative = inhibition"
COCC1CN(C2CCC2)CC12CCN(C(=O)c1ccc(OC)nc1)CC2 (centres undefined),"inconclusive: 7.08 µM [inhibitor, partial curve]",
CCOc1ccccc1NC(=O)N1C[C@@H](F)C[C@H]1C(=O)N1CCc2ccccc2C1,inactive,
CN(C)CCCC(=O)N1CCC2(CC1)CN([S+](C)(=O)[O-])Cc1ccccc1O2,"inconclusive: 7.94 µM [inhibitor, partial curve, poor fit]",
Cn1c(=O)[nH]c2cc(-c3noc(-c4cccc(Cl)c4)n3)ccc21,inactive,
CC(=O)c1cccc(NC(=O)N2C[C@H](c3nc(-c4ccncc4)no3)[C@@H](C)C2)c1,"inconclusive: 2 µM [inhibitor, single point]",
COc1ccccc1NC(=O)CSC1=Nc2ccccc2C2=NC(CCC(=O)NCc3cccs3)C(=O)N12 (centres undefined),"inconclusive: 11.2 µM [inhibitor, partial curve]",
COc1ccc(-n2cc(C(=O)NCc3ccccc3Cl)c3ccccc3c2=O)cc1,"inconclusive: 7.94 µM [inhibitor, single point]",
CCCc1noc(-c2cn(C3CCN(C(=O)Cc4cccc(F)c4)CC3)nn2)n1,"inconclusive: 2 µM [inhibitor, partial curve]",
COc1ccc(CCNC(=O)Cn2cccc2-c2nc(-c3ccc4c(c3)OCO4)no2)cc1OC,inactive,
COc1ccc(C2=NOC3(CCN(Cc4ccsc4)C3)C2)cc1 (centres undefined),"inconclusive: 3.16 µM [inhibitor, full curve, poor fit]",
O=C1Nc2ccccc2CC12CCN(CC1CCCCC1)CC2,"inconclusive: 4.47 µM [inhibitor, partial curve] and inconclusive: 1.41 µM [inhibitor, partial curve, poor fit]",
CCCCN1C(C(=O)c2ccccc2)=C(OC(C)=O)c2ccccc2S1(=O)=O,"inconclusive: 10 µM [inhibitor, single point]",
CN(Cc1ccccc1)Cc1cn(C[C@H]2O[C@@H](CC(=O)N3CCCC3)[C@H](O)[C@@H]2O)nn1,inactive,
CCc1noc(CC2CCOC3(CCN(S(=O)(=O)c4ccc(C(C)C)cc4)CC3)C2)n1 (centres undefined),"inconclusive: 8.91 µM [inhibitor, single point]",
Cc1cccc(NC(=O)Cn2c(-c3ccc(F)cc3)nc(C)c(CCO)c2=O)c1C,inactive,
Cc1ccc(CN2CCC[C@H]2C(=O)N2CCCCCCNC(=O)CC2)s1,"inconclusive: 11.2 µM [inhibitor, single point]",
Cc1noc(C)c1-c1cc2cc(CN(C)C)oc2c(N2CCN(Cc3ccccc3)CC2)n1,"inconclusive: 1.12 µM [inhibitor, partial curve, poor fit]",
CCCCCCOc1ccc(C2C(=O)N(C3CCCCC3)CC(=O)N2CCCC)cc1 (centres undefined),active: 8.91 µM,
O=C(C[C@@H]1CCNC[C@@H]1Cc1cc(CC2CCCCC2)on1)NCc1cccnc1,"inconclusive: 10 µM [inhibitor, partial curve, poor fit]",
Cc1ccccc1Nc1cnc2ccc(N3CCOCC3)nn12,inactive,
Cc1ccc(OCc2nnc(NC(=O)NCCc3cnc[nH]3)s2)cc1,"inconclusive: 8.91 µM [inhibitor, single point]",
CCOc1ccc(N(CC)S(=O)(=O)N2CCCC(C(=O)Nc3cc(Cl)ccc3OC)C2)cc1 (centres undefined),active: 10 µM,
CNC(=O)Nc1ccc(C)n(CC(=O)NCc2cc(C)ccc2C)c1=O,inactive,

Structure (SMILES),Potency,"activity, negative = inhibition"
O=C1NCCOCCCN(C(=O)NC2CCCCC2)[C@H]2CCC[C@@H]12,inactive,
O=C(NCc1ccc(F)cc1)[C@H]1CN2CCC1C[C@@H]2Cn1cc(COc2ccccc2)nn1 (some centres undefined),"inconclusive: 12.6 µM [inhibitor, partial curve, poor fit]",
CCn1ncc(N2CCCC(CC(=O)NCc3ccc(Cl)cc3)C2)cc1=O (centres undefined),inactive,
CCNC(=O)[C@@H]1C[C@@H](NC(=O)CO)CN1C(=O)CCc1ccc(O)cc1,inactive,
Cc1ncc2c(n1)C[C@@H]1CC[C@H]2N1S(=O)(=O)c1ccc(F)c(C)c1,inactive,
CN(C)c1ccc(CN2CCC3(CC2)C(C(=O)O)CC(=O)N3C)cn1 (centres undefined),inactive,
C=CCNC(=O)c1cnn2c1CN(C(=O)c1cccnc1)CC2,,inconclusive: -30.3% [inhibitor]
COc1ccc(C2Cn3nnc(-c4nc(-c5ccccc5Br)no4)c3CO2)cc1 (centres undefined),inactive,
COc1ccc(NC(=O)CN2C(=O)NC3(CCOCC3)C2=O)cc1OC,"inconclusive: 20 µM [inhibitor, single point]",
COc1ccc(-c2cc(N3CCCC(NC(=O)Cc4ccccc4)C3)n[nH]2)cc1 (centres undefined),"inconclusive: 1.58 µM [inhibitor, partial curve, poor fit]",
CCN1CCN(c2cc(C)c3cc(NC(=O)/C=C/c4ccc(OCCC(C)C)cc4)ccc3n2)CC1,active: 1.12 µM,
COc1ccc(-c2cc(C[C@@H]3CC[C@H](O)[C@@H](CNC4CCOCC4)O3)no2)cc1,"inconclusive: 11.2 µM [inhibitor, partial curve, poor fit]",
COc1cccc(-c2cc3c(ccn3C(C)C)c(C(=O)NCc3c(C)cc(C)[nH]c3=O)n2)c1,"inconclusive: 1.41 µM [inhibitor, partial curve, poor fit]",
CC(=O)c1ccc(NC(=O)NC[C@H]2C[C@@H]3CCN2C[C@@H]3CN2CCN(C)CC2)cc1,"inconclusive: 5.01 µM [inhibitor, full curve, poor fit]",
CN(C)CCCOc1ccc(-c2cnc(N)cn2)cn1,inactive,
CCC(C)S(=O)(=O)c1oc(-c2ccc(F)cc2)nc1S(=O)(=O)c1ccc(F)cc1 (centres undefined),"inconclusive: 11.2 µM [inhibitor, single point]",
COc1ccc(-c2noc(-c3cccn3CC(=O)N(C)c3ccc(F)cc3)n2)cc1F,"inconclusive: 1.41 µM [inhibitor, partial curve]",
O=C(c1cccc2[nH]ccc12)N1CCC2(CCCCO2)CC1,inactive,
Cc1cccc(-c2nocc2CCC(=O)NCc2ccc(F)cc2F)c1,inactive,
COc1cccc(-c2cc3c(ccn3C)c(C(=O)NCc3c(C)cc(C)[nH]c3=O)n2)c1,active: 10 µM,
CCN(CC)S(=O)(=O)c1ccc2c(c1)N(CC(=O)NCCCN1CCN(c3cc(C)ccc3C)CC1)C(=O)CO2,"inconclusive: 8.91 µM [inhibitor, partial curve, poor fit]",
CCC(=O)N(C1CCOCC1)C1CCN(S(=O)(=O)c2ccc(F)cc2F)CC1,"inconclusive: 10 µM [inhibitor, single point]",
Cc1ccc(C)c(NC(=O)Cn2cc(S(=O)(=O)NC(C)C)c(S(=O)(=O)NC(C)C)c2)c1,"inconclusive: 11.2 µM [inhibitor, single point]",
